Counter-ions that a name gives are not always drawn. The full ranking holds about 1,900 compounds; the median of “cell viability of compound + 1 nM pemigatinib relative to pemigatinib-only (DMSO) wells” is about 0.95, and the lowest 2% start at about 0.22. This is one part of the list.

The assay concerns PDC-DUC18828. As to the kind of experiment: cell viability of compound + 1 nM pemigatinib relative to pemigatinib-only (DMSO) wells (fraction); PDC-DUC18828 is a patient-derived cholangiocarcinoma cell line; higher = less growth inhibition. The settings on record: first compound 1 µM; pemigatinib concentration 1 nM; 72 h. As for the experimental part: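 Selleck Bioactive library screen in the patient-derived FGFR2 fusion-positive ICC cell line PDC-DUC18828 (500 cells/well). Each compound was tested at 1 uM with 1 nM pemigatinib, in triplicate, for 72 h. Viability was read by CellTiter-Glo and normalised to plate DMSO controls. Value is the paper's averaged normalised viability.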
For the molecule `CC[C@H](C)C(=O)O[C@H]1CCC=C2C=C[C@H](C)[C@H](CC[C@@H]3C[C@@H](O)CC(=O)O3)[C@H]21` [Mevastatin] + CCN1C(=O)N(c2c(F)c(OC)cc(OC)c2F)Cc2cnc3[nH]c(CN4CCOCC4)cc3c21 [pemigatinib], the cell viability worked out at 0.947.
`Cc1ccccc1CN1C2=NCCN2C(=O)C2=C1CCN(Cc1ccccc1)C2` [TIC10 Analogue] + CCN1C(=O)N(c2c(F)c(OC)cc(OC)c2F)Cc2cnc3[nH]c(CN4CCOCC4)cc3c21 [pemigatinib]: the cell viability turned out to be 0.97.
With `Nc1cc(C(Cl)=C(Cl)Cl)c(S(N)(=O)=O)cc1S(N)(=O)=O` [Clorsulon] + CCN1C(=O)N(c2c(F)c(OC)cc(OC)c2F)Cc2cnc3[nH]c(CN4CCOCC4)cc3c21 [pemigatinib], the cell viability was found to be 0.988.
As for `COc1ccc(F)c(F)c1C(=O)c1cnc(NC2CCN(S(C)(=O)=O)CC2)nc1N` + CCN1C(=O)N(c2c(F)c(OC)cc(OC)c2F)Cc2cnc3[nH]c(CN4CCOCC4)cc3c21 [pemigatinib], the cell viability amounted to 0.691.
Consider `CCCCC(F)(F)[C@@]1(O)CC[C@H]2[C@@H](CC(=O)[C@@H]2CCCCCCC(=O)O)O1` [Lubiprostone] + CCN1C(=O)N(c2c(F)c(OC)cc(OC)c2F)Cc2cnc3[nH]c(CN4CCOCC4)cc3c21 [pemigatinib], for which the cell viability stood at 0.996.
Take `CCOC(=O)[C@H](CCc1ccccc1)N[C@H]1CS[C@H](c2cccs2)CN(CC(=O)O)C1=O` [Temocapril HCl] + CCN1C(=O)N(c2c(F)c(OC)cc(OC)c2F)Cc2cnc3[nH]c(CN4CCOCC4)cc3c21 [pemigatinib]: the cell viability worked out at 1.04.
For the molecule `CCC(=O)O[C@]1(C(=O)CCl)[C@@H](C)C[C@H]2[C@@H]3CCC4=CC(=O)C=C[C@]4(C)[C@@]3(F)[C@@H](O)C[C@@]21C` [Clobetasol propionate] + CCN1C(=O)N(c2c(F)c(OC)cc(OC)c2F)Cc2cnc3[nH]c(CN4CCOCC4)cc3c21 [pemigatinib], the cell viability worked out at 0.925.
With `O=C1C[C@@H](c2ccc(O)cc2)Oc2cc(O)cc(O)c21` [Naringenin] + CCN1C(=O)N(c2c(F)c(OC)cc(OC)c2F)Cc2cnc3[nH]c(CN4CCOCC4)cc3c21 [pemigatinib] the figure was 0.92; with `O=S(=O)(O)c1cc(O)ccc1O` [Ethamsylate] + CCN1C(=O)N(c2c(F)c(OC)cc(OC)c2F)Cc2cnc3[nH]c(CN4CCOCC4)cc3c21 [pemigatinib], 0.979.
For `CC(=O)Nc1nc(C)c(-c2ccc(Cl)c(S(=O)(=O)NCCO)c2)s1` + CCN1C(=O)N(c2c(F)c(OC)cc(OC)c2F)Cc2cnc3[nH]c(CN4CCOCC4)cc3c21 [pemigatinib], the cell viability stood at 0.937.
As for `COc1ccc(C2CNC(=O)C2)cc1OC1CCCC1` (stereo unspecified) [Rolipram] + CCN1C(=O)N(c2c(F)c(OC)cc(OC)c2F)Cc2cnc3[nH]c(CN4CCOCC4)cc3c21 [pemigatinib], the cell viability stood at 1.02.
Consider `O=c1c(O)c(-c2ccc(O)cc2O)oc2cc(O)cc(O)c12` [Morin Hydrate] + CCN1C(=O)N(c2c(F)c(OC)cc(OC)c2F)Cc2cnc3[nH]c(CN4CCOCC4)cc3c21 [pemigatinib], for which the cell viability stood at 0.947.
With `OC[C@H]1O[C@@H](Oc2cc(O)cc(/C=C/c3ccc(O)cc3)c2)[C@H](O)[C@@H](O)[C@@H]1O` [Polydatin] + CCN1C(=O)N(c2c(F)c(OC)cc(OC)c2F)Cc2cnc3[nH]c(CN4CCOCC4)cc3c21 [pemigatinib] the figure was 0.906; with `COc1cc([C@@H]2c3cc4c(cc3[C@@H](O[C@@H]3O[C@@H]5CO[C@@H](C)O[C@H]5[C@H](O)[C@H]3O)[C@H]3COC(=O)[C@H]23)OCO4)cc(OC)c1O` [Etoposide] + CCN1C(=O)N(c2c(F)c(OC)cc(OC)c2F)Cc2cnc3[nH]c(CN4CCOCC4)cc3c21 [pemigatinib], 0.57.
For the molecule `CN(C)C(=S)NN=C(c1ccccn1)c1ccccn1` + CCN1C(=O)N(c2c(F)c(OC)cc(OC)c2F)Cc2cnc3[nH]c(CN4CCOCC4)cc3c21 [pemigatinib], the cell viability turned out to be 0.302.
With `COc1ccccc1OCC(O)CN1CCN(CC(=O)Nc2c(C)cccc2C)CC1` (stereo unspecified) [Ranolazine] + CCN1C(=O)N(c2c(F)c(OC)cc(OC)c2F)Cc2cnc3[nH]c(CN4CCOCC4)cc3c21 [pemigatinib] the figure was 0.964.
In the case of `COc1ccccc1OCC(O)CN1CCN(CC(=O)Nc2c(C)cccc2C)CC1` (stereo unspecified) [Ranolazine 2HCl] + CCN1C(=O)N(c2c(F)c(OC)cc(OC)c2F)Cc2cnc3[nH]c(CN4CCOCC4)cc3c21 [pemigatinib], the cell viability is 0.997.
On to `O=C1c2ccc(Nc3ccc(F)cc3F)cc2CCc2ccc(OC[C@H](O)CO)cc21` [Skepinone-L] + CCN1C(=O)N(c2c(F)c(OC)cc(OC)c2F)Cc2cnc3[nH]c(CN4CCOCC4)cc3c21 [pemigatinib], for which the cell viability is 0.908.
In the case of `NC(=O)C(c1ccccc1)(c1ccccc1)[C@@H]1CCN(CCc2ccc3c(c2)CCO3)C1` [Darifenacin HBr] + CCN1C(=O)N(c2c(F)c(OC)cc(OC)c2F)Cc2cnc3[nH]c(CN4CCOCC4)cc3c21 [pemigatinib] it was 0.894; in that of `CCCNCC(O)COc1ccccc1C(=O)CCc1ccccc1` (stereo unspecified) [Propafenone HCl] + CCN1C(=O)N(c2c(F)c(OC)cc(OC)c2F)Cc2cnc3[nH]c(CN4CCOCC4)cc3c21 [pemigatinib], 0.982; in that of `C[C@H]1C[C@@H]2[C@H]([C@@H](O)C[C@@]3(C)[C@H]2CC[C@]3(O)C(=O)CO)[C@@]2(C)C=CC(=O)C=C12` [Methylprednisolone] + CCN1C(=O)N(c2c(F)c(OC)cc(OC)c2F)Cc2cnc3[nH]c(CN4CCOCC4)cc3c21 [pemigatinib], 0.907.
For the molecule `CC(=O)O[C@]1(C(C)=O)CC[C@H]2[C@@H]3C[C@H](C)C4=CC(=O)CC[C@]4(C)[C@H]3CC[C@@]21C` [Medroxyprogesterone acetate] + CCN1C(=O)N(c2c(F)c(OC)cc(OC)c2F)Cc2cnc3[nH]c(CN4CCOCC4)cc3c21 [pemigatinib], the cell viability turned out to be 0.929.
With `O=C(O)c1cc(-c2ccccc2)nc2ccccc12` [Cinchophen] + CCN1C(=O)N(c2c(F)c(OC)cc(OC)c2F)Cc2cnc3[nH]c(CN4CCOCC4)cc3c21 [pemigatinib] the figure was 1; with `COc1cc2c(Oc3ccc4[nH]c(C)cc4c3F)ncnc2cc1OCCCN1CCCC1` [Cediranib (AZD2171)] + CCN1C(=O)N(c2c(F)c(OC)cc(OC)c2F)Cc2cnc3[nH]c(CN4CCOCC4)cc3c21 [pemigatinib], 0.914.
Regarding `CN(C)c1nc(N(C)C)nc(N(C)C)n1` [Altretamine] + CCN1C(=O)N(c2c(F)c(OC)cc(OC)c2F)Cc2cnc3[nH]c(CN4CCOCC4)cc3c21 [pemigatinib], the cell viability was found to be 0.927.
On to `Nc1nc2n[nH]nc2c(=O)[nH]1` [Azaguanine-8] + CCN1C(=O)N(c2c(F)c(OC)cc(OC)c2F)Cc2cnc3[nH]c(CN4CCOCC4)cc3c21 [pemigatinib], for which the cell viability worked out at 0.961.
Take `O=C(CCCN1CC=C(n2c(=O)[nH]c3ccccc32)CC1)c1ccc(F)cc1` [Droperidol] + CCN1C(=O)N(c2c(F)c(OC)cc(OC)c2F)Cc2cnc3[nH]c(CN4CCOCC4)cc3c21 [pemigatinib]: the cell viability stood at 0.938.
Regarding `CCO[C@@H]1OC(=O)C[C@@H]1NC(=O)[C@@H]1CCCN1C(=O)[C@@H](NC(=O)c1ccc(N)c(Cl)c1)C(C)(C)C` + CCN1C(=O)N(c2c(F)c(OC)cc(OC)c2F)Cc2cnc3[nH]c(CN4CCOCC4)cc3c21 [pemigatinib], the cell viability was 1.01.
As to `CCn1cc(C(=O)O)c(=O)c2ccc(C)nc21` [Nalidixic acid] + CCN1C(=O)N(c2c(F)c(OC)cc(OC)c2F)Cc2cnc3[nH]c(CN4CCOCC4)cc3c21 [pemigatinib], the cell viability was determined as 0.96.
Take `COc1ccc(-c2oc3c(CC=C(C)C)c(O[C@@H]4O[C@H](CO)[C@@H](O)[C@H](O)[C@H]4O)cc(O)c3c(=O)c2O[C@@H]2O[C@@H](C)[C@H](O)[C@@H](O)[C@H]2O)cc1` [Icariin] + CCN1C(=O)N(c2c(F)c(OC)cc(OC)c2F)Cc2cnc3[nH]c(CN4CCOCC4)cc3c21 [pemigatinib]: the cell viability was 0.948.
For the molecule `COc1ccc2cc(CCC(C)=O)ccc2c1` [Nabumetone] + CCN1C(=O)N(c2c(F)c(OC)cc(OC)c2F)Cc2cnc3[nH]c(CN4CCOCC4)cc3c21 [pemigatinib], the cell viability was determined as 0.969.
In the case of `Cc1cc(Cn2cnc3c2CC(C(=O)O)N(C(=O)C(c2ccccc2)c2ccccc2)C3)ccc1N(C)C` (stereo unspecified) + CCN1C(=O)N(c2c(F)c(OC)cc(OC)c2F)Cc2cnc3[nH]c(CN4CCOCC4)cc3c21 [pemigatinib] it was 0.951.
With `O=c1c(O)c(-c2cc(O)c(O)c(O)c2)oc2cc(O)cc(O)c12` [Myricetin] + CCN1C(=O)N(c2c(F)c(OC)cc(OC)c2F)Cc2cnc3[nH]c(CN4CCOCC4)cc3c21 [pemigatinib], the cell viability turned out to be 0.958.
On to `Cc1ccc(S(=O)(=O)NC(=O)NN2CC3CCCC3C2)cc1` (stereo unspecified) [Gliclazide] + CCN1C(=O)N(c2c(F)c(OC)cc(OC)c2F)Cc2cnc3[nH]c(CN4CCOCC4)cc3c21 [pemigatinib], for which the cell viability came out at 0.953.
In the case of `CCCC[C@@H](C=O)NC(=O)[C@H](CC(C)C)NC(=O)OCc1ccccc1` [Calpeptin] + CCN1C(=O)N(c2c(F)c(OC)cc(OC)c2F)Cc2cnc3[nH]c(CN4CCOCC4)cc3c21 [pemigatinib] it was 1.01; in that of `Cc1ccc(NC(=O)c2ccc(CN3CCN(C)CC3)cc2)cc1Nc1nc(-c2cccnc2)cs1` [Masitinib (AB1010)] + CCN1C(=O)N(c2c(F)c(OC)cc(OC)c2F)Cc2cnc3[nH]c(CN4CCOCC4)cc3c21 [pemigatinib], 1.11.

(Values after the supplement of paper PMC9588766.)
